Positions count from the first letter of the chain named. Names may count otherwise. These are yes or no findings as the source states them, for the method shown. Binding seen in cells or lysates may run through a third protein. Some results given as binding are weak or reduced against the parent protein; the word gives no strength. Tags and fused reporters may be left off the sequences shown.
B1: constitutively active RhoD(G26V)-myc (protein, UniProt O00212 1-210)
chain: MTAAQAAGEEAPPGVRSVKVVLVGDVGCGKTSLLMVFADGAFPESYTPTVFERYMVNLQVKGKPVHLHIWDTAGQDDYDRLRPLFYPDASVLLLCFDVTSPNSFDNIFNRWYPEVNHFCKKVPIIVVGCKTDLRKDKSLVNKLRRNGLEPVTYHRGQEMARSVGAVAYLECSARLHDNVHAVFQEAAEVALSSRGRNFWRRITQGFCVVT
B2: dominant negative RhoD(T31K)-myc (protein, UniProt O00212 1-210)
chain: B1 chain with V26G, T31K

Protein sequences, listed by entry. Tags and fused reporters are not part of them. Lines headed by an entry give the natural chain unless they say otherwise; changes in a name come on top. Chains listed by the source or under a name are the forms on record and can include a tag or linker. Residues count along the entry.
GST-cyto-plexinB1 (wild type) (O43157, residues 1512-2135): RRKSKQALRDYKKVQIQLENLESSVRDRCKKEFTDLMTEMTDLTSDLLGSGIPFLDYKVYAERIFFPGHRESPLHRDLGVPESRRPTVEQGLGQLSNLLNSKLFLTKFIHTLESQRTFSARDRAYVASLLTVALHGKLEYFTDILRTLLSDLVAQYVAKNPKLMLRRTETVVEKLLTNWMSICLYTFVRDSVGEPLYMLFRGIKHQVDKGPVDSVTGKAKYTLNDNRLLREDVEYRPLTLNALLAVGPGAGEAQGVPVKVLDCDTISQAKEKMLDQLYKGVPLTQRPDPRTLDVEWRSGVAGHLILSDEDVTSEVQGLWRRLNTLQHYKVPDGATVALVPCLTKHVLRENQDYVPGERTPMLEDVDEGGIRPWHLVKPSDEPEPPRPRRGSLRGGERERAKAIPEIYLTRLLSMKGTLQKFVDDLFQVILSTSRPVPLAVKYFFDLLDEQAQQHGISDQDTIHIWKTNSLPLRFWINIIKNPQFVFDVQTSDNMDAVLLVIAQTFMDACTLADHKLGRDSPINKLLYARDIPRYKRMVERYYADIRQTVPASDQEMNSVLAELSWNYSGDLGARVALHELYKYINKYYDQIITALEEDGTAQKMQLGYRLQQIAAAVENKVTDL
GST-cyto-plexinB1 (L1815P) (O43157, form named): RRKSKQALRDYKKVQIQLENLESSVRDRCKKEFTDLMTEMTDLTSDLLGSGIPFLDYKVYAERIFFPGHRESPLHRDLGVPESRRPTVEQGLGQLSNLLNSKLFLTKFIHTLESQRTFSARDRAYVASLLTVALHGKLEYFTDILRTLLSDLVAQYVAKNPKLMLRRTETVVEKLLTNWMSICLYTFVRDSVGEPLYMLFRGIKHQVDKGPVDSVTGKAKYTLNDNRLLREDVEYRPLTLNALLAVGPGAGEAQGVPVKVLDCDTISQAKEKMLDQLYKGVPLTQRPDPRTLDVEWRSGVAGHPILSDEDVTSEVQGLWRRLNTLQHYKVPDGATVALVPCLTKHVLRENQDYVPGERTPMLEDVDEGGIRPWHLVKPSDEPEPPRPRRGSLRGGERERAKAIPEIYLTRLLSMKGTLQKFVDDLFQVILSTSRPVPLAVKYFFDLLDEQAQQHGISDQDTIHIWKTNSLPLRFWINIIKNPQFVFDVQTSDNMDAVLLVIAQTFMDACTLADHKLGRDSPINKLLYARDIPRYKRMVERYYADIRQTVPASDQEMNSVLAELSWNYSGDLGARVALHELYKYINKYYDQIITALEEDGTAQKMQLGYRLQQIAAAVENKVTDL
GST-cyto-plexinB1 (T1697A) (O43157, form named): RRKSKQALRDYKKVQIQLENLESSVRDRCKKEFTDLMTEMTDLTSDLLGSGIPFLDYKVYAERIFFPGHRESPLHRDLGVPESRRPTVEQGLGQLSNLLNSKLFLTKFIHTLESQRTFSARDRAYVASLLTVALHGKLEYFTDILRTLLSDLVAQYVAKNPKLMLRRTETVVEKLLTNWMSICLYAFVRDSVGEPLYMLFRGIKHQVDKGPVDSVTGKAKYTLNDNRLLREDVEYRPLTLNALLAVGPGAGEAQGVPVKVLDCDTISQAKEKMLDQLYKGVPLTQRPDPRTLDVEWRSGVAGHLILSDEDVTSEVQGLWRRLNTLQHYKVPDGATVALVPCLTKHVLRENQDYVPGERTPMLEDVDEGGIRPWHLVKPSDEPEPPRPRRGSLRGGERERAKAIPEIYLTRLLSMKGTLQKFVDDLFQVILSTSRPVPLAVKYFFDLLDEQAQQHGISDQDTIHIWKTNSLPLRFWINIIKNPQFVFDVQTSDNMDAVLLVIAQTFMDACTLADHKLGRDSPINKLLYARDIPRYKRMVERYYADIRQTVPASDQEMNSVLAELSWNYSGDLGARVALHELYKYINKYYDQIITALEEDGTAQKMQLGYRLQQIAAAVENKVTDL
GST-cyto-plexinB1 (T1795A) (O43157, form named): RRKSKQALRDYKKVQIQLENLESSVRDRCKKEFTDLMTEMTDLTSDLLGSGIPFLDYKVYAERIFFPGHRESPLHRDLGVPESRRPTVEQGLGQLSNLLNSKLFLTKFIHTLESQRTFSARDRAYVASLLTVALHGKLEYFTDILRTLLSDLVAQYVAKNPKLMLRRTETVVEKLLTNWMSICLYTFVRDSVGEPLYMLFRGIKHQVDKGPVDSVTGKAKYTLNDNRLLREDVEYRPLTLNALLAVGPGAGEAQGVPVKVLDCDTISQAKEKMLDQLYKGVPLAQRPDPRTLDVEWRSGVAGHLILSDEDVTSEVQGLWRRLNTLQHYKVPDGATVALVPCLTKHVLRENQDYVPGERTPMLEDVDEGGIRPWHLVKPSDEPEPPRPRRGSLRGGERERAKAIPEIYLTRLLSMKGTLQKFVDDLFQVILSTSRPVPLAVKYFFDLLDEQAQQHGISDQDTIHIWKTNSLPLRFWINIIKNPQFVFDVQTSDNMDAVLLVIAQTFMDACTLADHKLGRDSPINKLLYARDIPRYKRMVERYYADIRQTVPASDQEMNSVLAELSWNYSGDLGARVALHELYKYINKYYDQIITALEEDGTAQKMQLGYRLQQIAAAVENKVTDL

Assays:
Assay in all cases: pull-down; GST-fused cyto-plexinB1 (WT or mutant) on the matrix incubated overnight with lysates of cells expressing RhoD(G26V)-myc or RhoD(T31K)-myc; SDS-PAGE and immunoblotting; only the target purified
[1] = target: GST-cyto-plexinB1 (L1815P) (UniProt O43157)
[2] = target: GST-cyto-plexinB1 (T1697A) (UniProt O43157)
[3] = target: GST-cyto-plexinB1 (T1795A) (UniProt O43157)
[4] = target: GST-cyto-plexinB1 (wild type) (UniProt O43157)

Row | Binder | binding [1] | binding [2] | binding [3] | binding [4]
1 | B1 | binds | binds | binds | binds
2 | B2 |  |  |  | no binding
